Data taken from paper PMC12820563.
The list shows a part of the results. The list includes weakly bound sequences.

molecular target: T1, MBP-FoxP3dN (UniProt Q99JB6); assay: PD-seq (MBP pull-down with sequencing); details: 20 mM Tris-HCl pH 7.5, 100 mM NaCl, 1.5 mM MgCl2, 0.4 uM protein, 0.1 uM dsDNA library, 30 min, room temperature, amylose pull-down; high values mean tight binding; double strand, one strand shown
T1 sequence: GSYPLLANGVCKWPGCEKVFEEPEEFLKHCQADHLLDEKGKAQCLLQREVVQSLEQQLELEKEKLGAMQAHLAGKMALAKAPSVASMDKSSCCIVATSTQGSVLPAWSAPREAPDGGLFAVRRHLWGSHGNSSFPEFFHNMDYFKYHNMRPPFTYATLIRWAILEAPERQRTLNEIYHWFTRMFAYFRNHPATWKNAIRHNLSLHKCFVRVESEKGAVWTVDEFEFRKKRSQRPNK

| Sequence | binding signal (RPM ratio (pull-down/input)) |
| --- | --- |
| GATGATTGTTCTCCCAGCTGATGAATTTGGATCGTCGAGTAAACAAATTTTCCTAATCTTTCTGTTCAAGCGCCATCTAC | 0.426 |
| GATGATTGTTCTCCCAGCTGATGAATTTCGTCAATCGAGTAAACAAATTTTCCTAATCTTTCTGTTCAAGCGCCATCTAC | 0.411 |
| GATGATTGTTCTCCCAGCTGATGAATTCAGCTTGTCGAGTAAACAAATTTTCCTAATCTTTCTGTTCAAGCGCCATCTAC | 2.84 |
| GATGATTGTTCTCCCAGCTGATGAATTTGTGGCCTCGAGTAAACAAATTTTCCTAATCTTTCTGTTCAAGCGCCATCTAC | 3.98 |
| GATGATTGTTCTCCCAGCTGATGAATTACAGCATTCGAGTAAACAAATTTTCCTAATCTTTCTGTTCAAGCGCCATCTAC | 5.18 |
| GATGATTGTTCTCCCAGCTGATGAATTGCTGCGTTCGAGTAAACAAATTTTCCTAATCTTTCTGTTCAAGCGCCATCTAC | 1.69 |
| GATGATTGTTCTCCCAGCTGATGAATTTATTTTGTCGAGTAAACAAATTTTCCTAATCTTTCTGTTCAAGCGCCATCTAC | 5.94 |
| GATGATTGTTCTCCCAGCTGATGAATTGCGGCAATCGAGTAAACAAATTTTCCTAATCTTTCTGTTCAAGCGCCATCTAC | 2.99 |
| GATGATTGTTCTCCCAGCTGATGAATTGTTGAACTCGAGTAAACAAATTTTCCTAATCTTTCTGTTCAAGCGCCATCTAC | 0.447 |
| GATGATTGTTCTCCCAGCTGATGAATTCTGCGTGTCGAGTAAACAAATTTTCCTAATCTTTCTGTTCAAGCGCCATCTAC | 5.15 |
| GATGATTGTTCTCCCAGCTGATGAATTGTCCGGGTCGAGTAAACAAATTTTCCTAATCTTTCTGTTCAAGCGCCATCTAC | 0.178 |
| GATGATTGTTCTCCCAGCTGATGAATTTGCCTGGTCGAGTAAACAAATTTTCCTAATCTTTCTGTTCAAGCGCCATCTAC | 0.914 |
| GATGATTGTTCTCCCAGCTGATGAATTGTCACGCTCGAGTAAACAAATTTTCCTAATCTTTCTGTTCAAGCGCCATCTAC | 0.524 |
| GATGATTGTTCTCCCAGCTGATGAATTATCCCCTTCGAGTAAACAAATTTTCCTAATCTTTCTGTTCAAGCGCCATCTAC | 0.246 |
| GATGATTGTTCTCCCAGCTGATGAATTCCAAATCTCGAGTAAACAAATTTTCCTAATCTTTCTGTTCAAGCGCCATCTAC | 0.26 |
| GATGATTGTTCTCCCAGCTGATGAATTGAAGCCTTCGAGTAAACAAATTTTCCTAATCTTTCTGTTCAAGCGCCATCTAC | 1.36 |
| GATGATTGTTCTCCCAGCTGATGAATTCGTTGTGTCGAGTAAACAAATTTTCCTAATCTTTCTGTTCAAGCGCCATCTAC | 5.69 |
| GATGATTGTTCTCCCAGCTGATGAATTGCGTTTATCGAGTAAACAAATTTTCCTAATCTTTCTGTTCAAGCGCCATCTAC | 3.36 |
| GATGATTGTTCTCCCAGCTGATGAATTAACTCCATCGAGTAAACAAATTTTCCTAATCTTTCTGTTCAAGCGCCATCTAC | 0.274 |
| GATGATTGTTCTCCCAGCTGATGAATTAGAACCCTCGAGTAAACAAATTTTCCTAATCTTTCTGTTCAAGCGCCATCTAC | 0.253 |
| GATGATTGTTCTCCCAGCTGATGAATTCACGCCTTCGAGTAAACAAATTTTCCTAATCTTTCTGTTCAAGCGCCATCTAC | 2.31 |

| Sequence | binding signal (RPM ratio (pull-down/input)) |
| --- | --- |
| GATGATTGTTCTCCCAGCTGATGAATTACTGCCGTCGAGTAAACAAATTTTCCTAATCTTTCTGTTCAAGCGCCATCTAC | 0.475 |
| GATGATTGTTCTCCCAGCTGATGAATTAGTTCCATCGAGTAAACAAATTTTCCTAATCTTTCTGTTCAAGCGCCATCTAC | 0.439 |
| GATGATTGTTCTCCCAGCTGATGAATTCGTGCAGTCGAGTAAACAAATTTTCCTAATCTTTCTGTTCAAGCGCCATCTAC | 0.598 |
| GATGATTGTTCTCCCAGCTGATGAATTAGCCCGGTCGAGTAAACAAATTTTCCTAATCTTTCTGTTCAAGCGCCATCTAC | 0.201 |
| GATGATTGTTCTCCCAGCTGATGAATTCAAATTATCGAGTAAACAAATTTTCCTAATCTTTCTGTTCAAGCGCCATCTAC | 0.576 |
| GATGATTGTTCTCCCAGCTGATGAATTAGGTGGCTCGAGTAAACAAATTTTCCTAATCTTTCTGTTCAAGCGCCATCTAC | 0.625 |
| GATGATTGTTCTCCCAGCTGATGAATTATCACGTTCGAGTAAACAAATTTTCCTAATCTTTCTGTTCAAGCGCCATCTAC | 0.424 |
| GATGATTGTTCTCCCAGCTGATGAATTAAGTCTATCGAGTAAACAAATTTTCCTAATCTTTCTGTTCAAGCGCCATCTAC | 0.686 |
| GATGATTGTTCTCCCAGCTGATGAATTGACGCGTTCGAGTAAACAAATTTTCCTAATCTTTCTGTTCAAGCGCCATCTAC | 1.34 |
| GATGATTGTTCTCCCAGCTGATGAATTTTGAACTTCGAGTAAACAAATTTTCCTAATCTTTCTGTTCAAGCGCCATCTAC | 0.374 |
| GATGATTGTTCTCCCAGCTGATGAATTTTGCGGCTCGAGTAAACAAATTTTCCTAATCTTTCTGTTCAAGCGCCATCTAC | 1.45 |
| GATGATTGTTCTCCCAGCTGATGAATTTTGAAATTCGAGTAAACAAATTTTCCTAATCTTTCTGTTCAAGCGCCATCTAC | 0.592 |
| GATGATTGTTCTCCCAGCTGATGAATTATTAAGATCGAGTAAACAAATTTTCCTAATCTTTCTGTTCAAGCGCCATCTAC | 0.268 |
| GATGATTGTTCTCCCAGCTGATGAATTATAGAACTCGAGTAAACAAATTTTCCTAATCTTTCTGTTCAAGCGCCATCTAC | 0.249 |
| GATGATTGTTCTCCCAGCTGATGAATTCCAAGGCTCGAGTAAACAAATTTTCCTAATCTTTCTGTTCAAGCGCCATCTAC | 0.233 |
| GATGATTGTTCTCCCAGCTGATGAATTGCTCTCATCGAGTAAACAAATTTTCCTAATCTTTCTGTTCAAGCGCCATCTAC | 0.606 |
| GATGATTGTTCTCCCAGCTGATGAATTTTCTCAGTCGAGTAAACAAATTTTCCTAATCTTTCTGTTCAAGCGCCATCTAC | 0.181 |
| GATGATTGTTCTCCCAGCTGATGAATTAGCCAACTCGAGTAAACAAATTTTCCTAATCTTTCTGTTCAAGCGCCATCTAC | 0.284 |
| GATGATTGTTCTCCCAGCTGATGAATTGAAATATTCGAGTAAACAAATTTTCCTAATCTTTCTGTTCAAGCGCCATCTAC | 0.426 |
| GATGATTGTTCTCCCAGCTGATGAATTTTAGGGCTCGAGTAAACAAATTTTCCTAATCTTTCTGTTCAAGCGCCATCTAC | 0.306 |
| GATGATTGTTCTCCCAGCTGATGAATTCGGTAGGTCGAGTAAACAAATTTTCCTAATCTTTCTGTTCAAGCGCCATCTAC | 0.485 |

| Sequence | binding signal (RPM ratio (pull-down/input)) |
| --- | --- |
| GATGATTGTTCTCCCAGCTGATGAATTCTCACGCTCGAGTAAACAAATTTTCCTAATCTTTCTGTTCAAGCGCCATCTAC | 0.337 |
| GATGATTGTTCTCCCAGCTGATGAATTCCCGCGCTCGAGTAAACAAATTTTCCTAATCTTTCTGTTCAAGCGCCATCTAC | 0.366 |
| GATGATTGTTCTCCCAGCTGATGAATTGAGCCGGTCGAGTAAACAAATTTTCCTAATCTTTCTGTTCAAGCGCCATCTAC | 0.333 |
| GATGATTGTTCTCCCAGCTGATGAATTACTGGTCTCGAGTAAACAAATTTTCCTAATCTTTCTGTTCAAGCGCCATCTAC | 0.364 |
| GATGATTGTTCTCCCAGCTGATGAATTCATTGGCTCGAGTAAACAAATTTTCCTAATCTTTCTGTTCAAGCGCCATCTAC | 0.916 |
| GATGATTGTTCTCCCAGCTGATGAATTACCGGATTCGAGTAAACAAATTTTCCTAATCTTTCTGTTCAAGCGCCATCTAC | 0.239 |
| GATGATTGTTCTCCCAGCTGATGAATTGCCCACTTCGAGTAAACAAATTTTCCTAATCTTTCTGTTCAAGCGCCATCTAC | 0.507 |
| GATGATTGTTCTCCCAGCTGATGAATTTACGTGGTCGAGTAAACAAATTTTCCTAATCTTTCTGTTCAAGCGCCATCTAC | 0.556 |
| GATGATTGTTCTCCCAGCTGATGAATTCAATCCATCGAGTAAACAAATTTTCCTAATCTTTCTGTTCAAGCGCCATCTAC | 0.349 |
| GATGATTGTTCTCCCAGCTGATGAATTTATTCAGTCGAGTAAACAAATTTTCCTAATCTTTCTGTTCAAGCGCCATCTAC | 0.473 |
| GATGATTGTTCTCCCAGCTGATGAATTGCTTGTATCGAGTAAACAAATTTTCCTAATCTTTCTGTTCAAGCGCCATCTAC | 1.9 |
| GATGATTGTTCTCCCAGCTGATGAATTATCCCGATCGAGTAAACAAATTTTCCTAATCTTTCTGTTCAAGCGCCATCTAC | 0.198 |
| GATGATTGTTCTCCCAGCTGATGAATTGCGTAACTCGAGTAAACAAATTTTCCTAATCTTTCTGTTCAAGCGCCATCTAC | 2.16 |
| GATGATTGTTCTCCCAGCTGATGAATTGGAAATATCGAGTAAACAAATTTTCCTAATCTTTCTGTTCAAGCGCCATCTAC | 0.346 |
| GATGATTGTTCTCCCAGCTGATGAATTTCCGAATTCGAGTAAACAAATTTTCCTAATCTTTCTGTTCAAGCGCCATCTAC | 0.72 |
| GATGATTGTTCTCCCAGCTGATGAATTATGCTACTCGAGTAAACAAATTTTCCTAATCTTTCTGTTCAAGCGCCATCTAC | 2.64 |
| GATGATTGTTCTCCCAGCTGATGAATTGCGACGATCGAGTAAACAAATTTTCCTAATCTTTCTGTTCAAGCGCCATCTAC | 0.544 |
| GATGATTGTTCTCCCAGCTGATGAATTTAAATGTTCGAGTAAACAAATTTTCCTAATCTTTCTGTTCAAGCGCCATCTAC | 0.813 |
| GATGATTGTTCTCCCAGCTGATGAATTCGGTTGTTCGAGTAAACAAATTTTCCTAATCTTTCTGTTCAAGCGCCATCTAC | 4.55 |
| GATGATTGTTCTCCCAGCTGATGAATTCTAGTACTCGAGTAAACAAATTTTCCTAATCTTTCTGTTCAAGCGCCATCTAC | 0.444 |
| GATGATTGTTCTCCCAGCTGATGAATTAGCTCTGTCGAGTAAACAAATTTTCCTAATCTTTCTGTTCAAGCGCCATCTAC | 0.279 |
